# Test results as given in PubChem BioAssay AID588795 (National Center for Advancing Translational Sciences (NCATS), 2011).
# Where “and” joins values, the source holds several entries; their conditions need not be identical. Equal values may be shown once. About 1,400 (0.36%) of roughly 390,000 compounds were called active. Inconclusive results, whose numbers are uncertain, are shown with a selection of clear calls. Calls follow the shape of the dose curve; as a rule, active = well fitted inhibition curve with a large enough effect; inconclusive = small, poorly fitted or top-dose-only effect; inactive = no such curve, though single readings can be large or run the other way. A potency beside an inconclusive call is a rough fit, not a confirmed value.
# Biological target: Flap endonuclease 1 (Homo sapiens) (UniProt P39748)
# Test: qHTS Assay for the Inhibitors of Human Flap endonuclease 1 (FEN1). Also: nearly all actives have a fitted effect of over 65% in size.
# Conditions: Recombinant FEN1 flap cleavage, fluorescence, 15 min; series mostly up to 114 µM; activity change, negative = inhibition: at the top concentration
# How it was run: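 FEN1 at 10 nM preincubated with compounds 15 min at room temperature, then flap DNA substrate added at 50 nM final. Signal read at 0 and 15 min; concentration-response fitted with four-parameter Hill equation.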
# % is scaled to controls: 0 for no effect and ±100 for the full control effect; potency is read from the fitted curve at half-maximal effect; tags tell the direction and shape of the fitted curve.
# UniProt P39748, sequence (P39748 whole entry, looked up): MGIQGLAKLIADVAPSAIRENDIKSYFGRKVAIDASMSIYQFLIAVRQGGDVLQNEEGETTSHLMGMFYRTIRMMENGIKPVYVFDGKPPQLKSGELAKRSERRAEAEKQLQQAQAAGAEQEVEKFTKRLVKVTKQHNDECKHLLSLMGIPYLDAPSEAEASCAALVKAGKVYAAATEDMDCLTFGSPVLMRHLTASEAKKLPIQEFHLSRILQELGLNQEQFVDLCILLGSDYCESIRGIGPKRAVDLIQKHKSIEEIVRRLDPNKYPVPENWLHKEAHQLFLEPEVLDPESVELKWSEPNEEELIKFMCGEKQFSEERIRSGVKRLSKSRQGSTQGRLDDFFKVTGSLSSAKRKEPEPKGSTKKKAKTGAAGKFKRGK
Structure (SMILES),Potency,"activity change, negative = inhibition"
COc1ccc(/C=C2\Oc3cc(OCC(N)=O)ccc3C2=O)cc1OC,"inconclusive: 20 µM [inhibitor, partial curve, poor fit]",–
N#Cc1c(N2CCCC2)nc(N)c2c(N)nc(N3CCCC3)cc12,"inconclusive: 50.1 µM [inhibitor, partial curve, poor fit]",–
Cc1ccc(NC(=O)CN2CCc3cc4c(cc3C2C)OCCCO4)cc1 (stereo not drawn),"inconclusive: 79.4 µM [inhibitor, partial curve, poor fit]",–
Cn1c(C(=O)NCCN2CCCCCC2)cc2c(=O)n(C)c3ccccc3c21,"inconclusive: 15.8 µM [inhibitor, full curve, poor fit]",–
O=C(CSc1ccccc1Cl)N1CCC(c2nc3ccccc3s2)CC1,"inconclusive: 89.1 µM [inhibitor, partial curve, poor fit]",–
O=c1nc2s/c(=C\c3ccco3)c(=O)n2nc1Cc1ccc(F)cc1,"inconclusive: 79.4 µM [inhibitor, partial curve]",–
Cc1ccc(Oc2nnc(-c3cccs3)c3ccccc23)cc1C,"inconclusive: 39.8 µM [inhibitor, single point]",–
O=C(C#Cc1ccccc1)c1cccc([N+](=O)[O-])c1,–,inactive: 3.8%
CC(C)c1ccc(S(=O)(=O)/N=C2\C=C(NS(=O)(=O)c3ccccc3)C(=O)c3ccccc32)cc1,"inconclusive: 89.1 µM [inhibitor, single point]",–
O/N=C(\c1ccc(Cl)cc1Cl)c1ncc(C(F)(F)F)cc1Cl,"inconclusive: 56.2 µM [inhibitor, partial curve, poor fit]",–
O=C(Cc1nnc(NC(=O)c2ccccc2)s1)N/N=C\c1ccc(O)c(O)c1,"inconclusive: 12.6 µM [inhibitor, full curve, poor fit]",–
COc1cc(/C=N/NC(=O)c2cc(-c3ccco3)nc3ccccc23)cc(OC)c1O,–,inactive: -29.4%
CC(=O)c1cccc(NC(=O)Nc2sc3nc4n(c(=O)c3c2C)CCC(C)CC4)c1 (stereo not drawn),–,inactive: -15.7%
Cc1ccsc1CCN1C(=O)N(c2ccccc2)C(=O)C1CC(=O)Nc1ccc(Cl)cc1 (stereo not drawn),–,inactive: -2.62%
COc1ccc(CC(=O)Nc2cc(S(=O)(=O)N3CCCC3)ccc2Cl)c(OC)c1,"inconclusive: 15.8 µM [inhibitor, partial curve, poor fit]",–
CCC(Sc1nc2c(sc3ccccc32)c(=O)n1CCc1ccc(OC)c(OC)c1)C(=O)N(CC)CC (stereo not drawn),–,inactive: 2.21%
C#CCOCCOCCOCCNc1nc(N2CCN(C(=O)CCCCCCCCCCNC(=O)Cn3cc(C[C@@H](C)O)nn3)CC2)nc(N2CCN(C(=O)CCCCCCCCCCNC(=O)[C@@H]([C@H](C)CC)n3cc(CCCCCN)nn3)CC2)n1,"inconclusive: 89.1 µM [inhibitor, single point]",–
COC(=O)c1ccccc1NC(=O)c1noc2c1CCC2,"inconclusive: 89.1 µM [inhibitor, single point]",–
O=C(O)CCCc1ccc2ccc3cccc4ccc1c2c34,"inconclusive: 56.2 µM [inhibitor, partial curve, poor fit]",–
CC(C)c1ccc(NS(=O)(=O)c2ccc(-n3cccn3)cc2)cc1,"inconclusive: 56.2 µM [inhibitor, partial curve, poor fit]",–
Cc1cccc(N2CCN(C(=O)Cn3sc4nc(C)cc(C)c4c3=O)CC2C)c1 (stereo not drawn),"inconclusive: 22.4 µM [inhibitor, full curve, poor fit]",–

Structure (SMILES),Potency,"activity change, negative = inhibition"
O=C(Nc1cc(-c2ccccc2)sc1C(=O)O)c1cccc(F)c1,"inactive and inconclusive: 56.2 µM [inhibitor, partial curve, poor fit]",–
Cc1cccc(-c2cc3nc4c(c(N5CCCC(O)C5)n3n2)CCC4)c1 (stereo not drawn),"inconclusive: 89.1 µM [inhibitor, single point]",–
O=C(N/N=C/c1sc(=O)n(Cc2ccc(Br)cc2)c1Cl)c1ccco1,"inconclusive: 79.4 µM [inhibitor, partial curve, poor fit]",–
COc1cccc(-c2ccc(C#N)c(SCC(=O)NCCc3ccc(Cl)cc3)n2)c1,"inconclusive: 89.1 µM [inhibitor, single point]",–
NC(=O)CN1CCN(C(=O)NC2CCCCC2)CC1,–,inactive: 28.9%
COc1cccc(/C=C2/NC(=O)N(CC(=O)Nc3ccc(C)cc3)C2=O)c1OCc1cccc(C(=O)O)c1,"inconclusive: 39.8 µM [inhibitor, full curve]",–
COc1ccc2[nH]c3c(Cl)ncnc3c2c1,"inconclusive: 50.1 µM [inhibitor, partial curve]",–
COc1ccc(N=Cc2c(O)ccc3ccccc23)cc1,"inconclusive: 79.4 µM [inhibitor, partial curve, poor fit]",–
COc1cccc(Cn2c(SCC(=O)N3CCN(c4ccc(F)cc4)CC3)nc3ccccc32)c1,–,inactive: 2.29%
CCOC(=O)c1c(C)n(CC(O)CN(C)C)c2cc(Br)c(OC)cc12 (stereo not drawn),"inconclusive: 56.2 µM [inhibitor, partial curve, poor fit]",–
COC(=O)c1cc(CN2C(=O)c3ccccc3C2=O)c(O)c([N+](=O)[O-])c1,"inconclusive: 100 µM [inhibitor, single point]",–
COc1ccccc1NC(=O)c1cc2c(=O)n(C)c3ccccc3c2n1C,"inconclusive: 89.1 µM [inhibitor, single point]",–
CN(C)CCCN(C(=O)CCOc1ccccc1)c1nc2ccc(F)cc2s1,"inconclusive: 50.1 µM [inhibitor, partial curve, poor fit]",–
COc1ccccc1-c1oc2ccccc2c1-c1ccccc1OC,"inconclusive: 79.4 µM [inhibitor, partial curve, poor fit]",–
Nc1cccc(S(=O)(=O)N2CCOCC2)c1,–,inactive: 15.5%
CCN(CC)CCCNc1nc2ccccc2c2[nH]c3ccc(OC)cc3c12,active: 3.55 µM,–
COC(=O)c1ccc2c(c1)C(C)(C)C(/C=C/c1ccc(OC)c(OC)c1OC)=[N+]2C,"inconclusive: 56.2 µM [inhibitor, partial curve, poor fit]",–
COc1ccc(Br)cc1/C=N/Nc1ccc(S(=O)(=O)Nc2ccccc2C(=O)O)cc1[N+](=O)[O-],"inconclusive: 89.1 µM [inhibitor, single point]",–
COc1ccc(Cl)cc1NC(=O)c1c(NCc2ccc(C)o2)sc2c1CCC(C)C2 (stereo not drawn),–,inactive: -9.46%
O=C(O)c1ccc(/C=C/C(=O)c2ccc3c(c2)OCCCO3)cc1,–,inactive: -1.22%
NS(=O)(=O)c1ccc(N=Nc2cc3ccccc3c(C(=O)O)c2O)cc1,"inconclusive: 56.2 µM [inhibitor, partial curve, poor fit]",–

Structure (SMILES),Potency,"activity change, negative = inhibition"
CCn1c2ccccc2c2cc(CN3CCN(Cc4ccc(Br)cc4)CC3)ccc21,"inconclusive: 89.1 µM [inhibitor, partial curve, poor fit]",–
Cc1cccc(N/C(N)=N/c2nc(C)cc(C)n2)c1,"inconclusive: 89.1 µM [inhibitor, partial curve, poor fit]",–
COc1ccc2[nH]c3c(c2c1)CCNC3c1ccc([N+](=O)[O-])o1 (stereo not drawn),"inconclusive: 17.8 µM [inhibitor, full curve]",–
Nc1ccc(C(Cc2ccnc3ccccc23)Cc2ccnc3ccccc23)cc1,–,inactive: -29.5%
COc1ccc(OC)c(C2SCCN2S(=O)(=O)c2cccc(C(F)(F)F)c2)c1 (stereo not drawn),"inconclusive: 89.1 µM [inhibitor, partial curve, poor fit]",–
Cc1ccnc(NS(=O)(=O)c2ccc(NC(=O)C3COc4ccccc4O3)cc2)n1 (stereo not drawn),"inconclusive: 89.1 µM [inhibitor, single point]",–
CCc1ccc2[nH]cc(S(=O)(=O)c3ccc(C(C)C)cc3)c(=O)c2c1,–,inactive: -6.4%
Nc1ccc(S(=O)(=O)c2cc(O)c3ccccc3c2O)cc1,"inconclusive: 79.4 µM [inhibitor, partial curve, poor fit]",–
O=C(COc1ccccc1F)Nc1ccc2nc(SCC(=O)N3CCc4ccccc43)sc2c1,–,inactive: -4.7%
CCOc1ccc2[nH]c3c(NCCOC)ncnc3c2c1,"inconclusive: 28.2 µM [inhibitor, partial curve, poor fit]",–
CC(=O)Nc1ccc(Nc2nc(-c3ccccc3)nc3ccccc23)cc1,"inconclusive: 79.4 µM [inhibitor, partial curve, poor fit]",–
CN(C)c1ccc(-c2nn3c(-c4ccc(Cl)cc4)nnc3s2)cc1,–,inactive: -4.83%
COc1cc2c(cc1OC)CN(C(=O)c1cc(=O)c3ccccc3o1)CC2,"inconclusive: 89.1 µM [inhibitor, partial curve, poor fit]",–
COc1cc2cc(-c3ccc(O)cc3O)nc(C)c2cc1OC,"inconclusive: 39.8 µM [inhibitor, partial curve]",–
Cc1cc(C)c2nc(SCC#N)cc(C)c2c1,"inconclusive: 89.1 µM [inhibitor, partial curve, poor fit]",–
Oc1ccc(Cl)cc1C1C=C(c2ccc3c(c2)OCO3)NC(c2ccc(Br)cc2)N1 (stereo not drawn),–,inactive: -5.51%
CCN(CC)c1ccc2c(-c3ccc(S(=O)(=O)O)cc3S(=O)(=O)[O-])c3ccc(=[N+](CC)CC)cc-3oc2c1,"inconclusive: 28.2 µM [inhibitor, partial curve, poor fit]",–
CS(=O)(=O)c1nc2c(cc1C#N)CCCC2,"inconclusive: 100 µM [inhibitor, single point]",–
Cc1nn(C(=O)c2ccccc2F)c(C)c1S(=O)(=O)N1CCOCC1,–,inactive: -6.39%
Cc1ccc(NCc2ccc(O)c3ncccc23)cc1,–,inactive: -14.5%
N#Cc1ccccc1OCC(=O)NC(=O)NCc1ccco1,–,inactive: 7.81%
